Values of other authors as cited in article PMC11006913.
This is one part of the list.

How the values were obtained:
Conditions in all cases: PBM; conditions not shown; double strand, one strand shown; scale: upbm affinity estimate (log intensity, higher = more binding, comparable within an allelic series)
[1] = molecular target: NKX2-5 K183E (Homo sapiens) (UniProt P52952)
[2] = molecular target: NKX2-5 R161P (Homo sapiens) (UniProt P52952)
[3] = molecular target: NKX2-5 R190C (Homo sapiens) (UniProt P52952)

| Sequence | binding signal [1] | binding signal [2] | binding signal [3] |
| --- | --- | --- | --- |
| GCACTTAC [8-mer GCACTTAC] | 11.2 | 12.5 | 10.7 |
| CACTTCAG [8-mer CACTTCAG] | 11.4 | 12.5 | 10.6 |
| ACACTTAA [8-mer ACACTTAA] | 11.5 | 12.9 | 11 |
| AAGTGCAG [8-mer AAGTGCAG] | 10.7 | 12.1 | 10.6 |
